Assay [1] deals with T1, RNase II–Flag (E. coli) (UniProt P30850).
T1 sequence: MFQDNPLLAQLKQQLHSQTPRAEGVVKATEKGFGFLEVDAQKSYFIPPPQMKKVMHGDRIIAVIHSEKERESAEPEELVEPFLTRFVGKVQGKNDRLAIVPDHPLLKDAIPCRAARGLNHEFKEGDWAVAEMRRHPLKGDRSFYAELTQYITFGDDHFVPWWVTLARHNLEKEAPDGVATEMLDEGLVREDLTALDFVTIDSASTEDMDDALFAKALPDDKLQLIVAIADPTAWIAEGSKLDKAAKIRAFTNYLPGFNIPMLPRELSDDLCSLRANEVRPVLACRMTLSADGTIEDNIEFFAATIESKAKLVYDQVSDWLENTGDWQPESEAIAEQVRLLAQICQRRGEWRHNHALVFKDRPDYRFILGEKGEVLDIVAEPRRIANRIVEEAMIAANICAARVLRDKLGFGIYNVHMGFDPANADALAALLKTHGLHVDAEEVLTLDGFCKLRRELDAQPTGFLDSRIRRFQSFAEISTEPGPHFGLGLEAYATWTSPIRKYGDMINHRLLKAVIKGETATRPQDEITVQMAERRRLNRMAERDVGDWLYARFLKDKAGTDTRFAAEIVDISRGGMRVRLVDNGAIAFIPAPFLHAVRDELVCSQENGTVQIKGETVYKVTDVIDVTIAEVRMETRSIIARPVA
In words: co-IP; anti-Flag beads; protein extracts of cells with chromosomally encoded RNase II–Flag and RNaseE^(1–417) plus plasmid-encoded HA-tagged RNaseE^C fragments under Plac (100 μM IPTG for 30 or 50 min); Western blot. (A western blot detects proteins with antibodies after separation by electrophoresis.)

Amino acid sequences for entries named in this document (tags omitted). A change or cut given only in a name is not applied to a line headed by its entry.
UniProt P21513: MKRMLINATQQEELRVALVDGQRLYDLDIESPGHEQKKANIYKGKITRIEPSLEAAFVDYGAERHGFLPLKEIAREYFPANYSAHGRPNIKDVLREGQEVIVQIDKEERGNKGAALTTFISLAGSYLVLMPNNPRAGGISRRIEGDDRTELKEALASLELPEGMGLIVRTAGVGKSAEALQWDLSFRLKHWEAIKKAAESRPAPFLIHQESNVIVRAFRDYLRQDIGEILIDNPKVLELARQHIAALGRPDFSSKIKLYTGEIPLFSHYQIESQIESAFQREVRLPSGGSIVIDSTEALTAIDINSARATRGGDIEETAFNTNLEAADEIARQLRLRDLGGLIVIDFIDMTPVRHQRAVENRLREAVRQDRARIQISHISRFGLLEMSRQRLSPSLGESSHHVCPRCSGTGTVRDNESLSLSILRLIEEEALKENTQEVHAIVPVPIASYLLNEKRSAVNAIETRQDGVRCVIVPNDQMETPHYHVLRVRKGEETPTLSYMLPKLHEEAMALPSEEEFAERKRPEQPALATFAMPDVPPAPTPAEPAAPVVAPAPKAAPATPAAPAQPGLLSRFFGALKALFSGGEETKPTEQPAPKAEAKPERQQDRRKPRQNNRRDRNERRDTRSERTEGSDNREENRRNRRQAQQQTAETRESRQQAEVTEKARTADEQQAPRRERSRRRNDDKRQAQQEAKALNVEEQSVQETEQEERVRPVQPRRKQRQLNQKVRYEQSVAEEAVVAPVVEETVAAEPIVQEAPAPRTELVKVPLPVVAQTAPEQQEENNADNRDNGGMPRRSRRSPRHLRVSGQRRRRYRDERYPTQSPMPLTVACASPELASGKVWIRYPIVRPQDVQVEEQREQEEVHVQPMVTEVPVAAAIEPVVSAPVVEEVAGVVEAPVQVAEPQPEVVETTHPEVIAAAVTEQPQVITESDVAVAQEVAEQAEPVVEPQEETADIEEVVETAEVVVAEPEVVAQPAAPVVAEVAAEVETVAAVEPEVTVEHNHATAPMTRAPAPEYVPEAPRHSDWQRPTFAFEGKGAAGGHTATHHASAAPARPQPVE
UniProt P0A6P9: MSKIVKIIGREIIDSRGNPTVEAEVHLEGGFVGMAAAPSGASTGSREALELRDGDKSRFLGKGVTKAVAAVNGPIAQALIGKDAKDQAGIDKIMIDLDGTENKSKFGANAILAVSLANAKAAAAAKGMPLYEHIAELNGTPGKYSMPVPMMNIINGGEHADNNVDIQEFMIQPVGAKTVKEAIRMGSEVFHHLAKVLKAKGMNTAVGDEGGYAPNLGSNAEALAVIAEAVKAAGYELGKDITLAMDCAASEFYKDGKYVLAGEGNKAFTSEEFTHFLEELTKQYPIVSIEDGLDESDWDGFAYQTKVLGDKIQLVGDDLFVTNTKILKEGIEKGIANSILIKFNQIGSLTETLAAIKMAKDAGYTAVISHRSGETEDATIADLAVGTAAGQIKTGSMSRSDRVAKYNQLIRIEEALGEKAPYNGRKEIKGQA

In assay [2] the target is T1, RNase II–Flag (E. coli). Put plainly: co-IP; anti-Flag beads; 1 mg protein extract of cells with chromosomally encoded RNase II–Flag and RNaseE–HA (or RNaseE^(1–417)–HA, RNaseE^(1–659)–HA); overnight at 4°C in IP buffer (25 mM Tris pH 7.5, 150 mM NaCl, 1 mM DTT, 1 mM EDTA, 5% glycerol, 1% nonidet P-40); Western blot; also extracts of cells lacking Eno, PNPase, or PNPase and Eno.

The target in assay [3] is RNaseE^(820–1061)–HA (E. coli) (UniProt P21513). In words: co-IP; anti-HA beads (protein A/G); protein extracts of cells with chromosomally encoded RNase II–Flag and RNaseE^(1–417) plus plasmid-encoded HA-tagged RNaseE^C fragments under Plac; Western blot with antibodies against the HA and Flag tags, PNPase and Eno.
In assay [4] the target is RNaseE^(762–1021)–HA (E. coli) (UniProt P21513). The description is as above.

Results are given in words; binding and its absence hold for the method and conditions named. In cells and extracts the contact can be indirect. Some entries that bind do so weakly or less than the wild type. Where a sequence is shown, tags or fusion partners need not be part of it.

Regarding “RNaseE^(762–1021)–HA (from UniProt P21513 762-1021) (domain or fragment)”, the binding result in assay [1] is “no binding”.

Turning to “RNaseE^(1–417)–HA (from UniProt P21513 1-417) (domain or fragment)”, in assay [2], the binding entry is “no binding”.

Consider “Eno (enolase) (from UniProt P0A6P9 1-432) (enzyme)”, for which the binding result in assay [3] and in assay [4] was “binds” each time.

In the case of “RNaseE^(1–659)–HA (from UniProt P21513 1-659) (domain or fragment)”, the binding result in assay [2] is “no binding”.

Consider “RNaseE^(820–1061)–HA (from UniProt P21513 820-1061) (domain or fragment)”, for which the binding entry in assay [1] is reported as “no binding”.

B1: PNPase (polynucleotide phosphorylase) (enzyme, UniProt P05055 1-711)
chain: MLNPIVRKFQYGQHTVTLETGMMARQATAAVMVSMDDTAVFVTVVGQKKAKPGQDFFPLTVNYQERTYAAGRIPGSFFRREGRPSEGETLIARLIDRPIRPLFPEGFVNEVQVIATVVSVNPQVNPDIVAMIGASAALSLSGIPFNGPIGAARVGYINDQYVLNPTQDELKESKLDLVVAGTEAAVLMVESEAQLLSEDQMLGAVVFGHEQQQVVIQNINELVKEAGKPRWDWQPEPVNEALNARVAALAEARLSDAYRITDKQERYAQVDVIKSETIATLLAEDETLDENELGEILHAIEKNVVRSRVLAGEPRIDGREKDMIRGLDVRTGVLPRTHGSALFTRGETQALVTATLGTARDAQVLDELMGERTDTFLFHYNFPPYSVGETGMVGSPKRREIGHGRLAKRGVLAVMPDMDKFPYTVRVVSEITESNGSSSMASVCGASLALMDAGVPIKAAVAGIAMGLVKEGDNYVVLSDILGDEDHLGDMDFKVAGSRDGISALQMDIKIEGITKEIMQVALNQAKGARLHILGVMEQAINAPRGDISEFAPRIHTIKINPDKIKDVIGKGGSVIRALTEETGTTIEIEDDGTVKIAATDGEKAKHAIRRIEEITAEIEVGRVYTGKVTRIVDFGAFVAIGGGKEGLVHISQIADKRVEKVTDYLQMGQEVPVKVLEVDRQGRIRLSIKEATEQSQPAAAPEAPAAEQGE
Take B1: the binding entry in assay [3] was “binds”.

B2: RNase II–Flag (enzyme, UniProt P30850 1-644)
chain: MFQDNPLLAQLKQQLHSQTPRAEGVVKATEKGFGFLEVDAQKSYFIPPPQMKKVMHGDRIIAVIHSEKERESAEPEELVEPFLTRFVGKVQGKNDRLAIVPDHPLLKDAIPCRAARGLNHEFKEGDWAVAEMRRHPLKGDRSFYAELTQYITFGDDHFVPWWVTLARHNLEKEAPDGVATEMLDEGLVREDLTALDFVTIDSASTEDMDDALFAKALPDDKLQLIVAIADPTAWIAEGSKLDKAAKIRAFTNYLPGFNIPMLPRELSDDLCSLRANEVRPVLACRMTLSADGTIEDNIEFFAATIESKAKLVYDQVSDWLENTGDWQPESEAIAEQVRLLAQICQRRGEWRHNHALVFKDRPDYRFILGEKGEVLDIVAEPRRIANRIVEEAMIAANICAARVLRDKLGFGIYNVHMGFDPANADALAALLKTHGLHVDAEEVLTLDGFCKLRRELDAQPTGFLDSRIRRFQSFAEISTEPGPHFGLGLEAYATWTSPIRKYGDMINHRLLKAVIKGETATRPQDEITVQMAERRRLNRMAERDVGDWLYARFLKDKAGTDTRFAAEIVDISRGGMRVRLVDNGAIAFIPAPFLHAVRDELVCSQENGTVQIKGETVYKVTDVIDVTIAEVRMETRSIIARPVA
Consider B2, for which the binding entry in assay [3] and in assay [4] was “no binding” throughout.

The values above are taken from article PMC4274665.
